{"source": "PubChem BioAssay AID1347165", "about": "(National Center for Advancing Translational Sciences (NCATS), 2019)", "note": "Out of some 220,000 compounds screened, about 5,700 (2.6%) were called active. Entries that show only a call come without a potency. This list was built around the results that the source calls inconclusive (neither active nor inactive); the mix of calls is not that of the screen. The call rests on the fitted dose curve; in most records, active means well fitted inhibition curve with a large enough effect; inconclusive means small, poorly fitted or top-dose-only effect; inactive means no such curve, though single readings can be large or run the other way. Where the call is inconclusive, the potency comes from a doubtful curve fit. Potency means the concentration at half of the fitted maximal effect; tags describe the fitted curve by direction and shape."}
{"target": "Lysine-specific demethylase 5B (Homo sapiens) (UniProt Q9UGL1)", "sequence (Q9UGL1 whole entry, looked up)": "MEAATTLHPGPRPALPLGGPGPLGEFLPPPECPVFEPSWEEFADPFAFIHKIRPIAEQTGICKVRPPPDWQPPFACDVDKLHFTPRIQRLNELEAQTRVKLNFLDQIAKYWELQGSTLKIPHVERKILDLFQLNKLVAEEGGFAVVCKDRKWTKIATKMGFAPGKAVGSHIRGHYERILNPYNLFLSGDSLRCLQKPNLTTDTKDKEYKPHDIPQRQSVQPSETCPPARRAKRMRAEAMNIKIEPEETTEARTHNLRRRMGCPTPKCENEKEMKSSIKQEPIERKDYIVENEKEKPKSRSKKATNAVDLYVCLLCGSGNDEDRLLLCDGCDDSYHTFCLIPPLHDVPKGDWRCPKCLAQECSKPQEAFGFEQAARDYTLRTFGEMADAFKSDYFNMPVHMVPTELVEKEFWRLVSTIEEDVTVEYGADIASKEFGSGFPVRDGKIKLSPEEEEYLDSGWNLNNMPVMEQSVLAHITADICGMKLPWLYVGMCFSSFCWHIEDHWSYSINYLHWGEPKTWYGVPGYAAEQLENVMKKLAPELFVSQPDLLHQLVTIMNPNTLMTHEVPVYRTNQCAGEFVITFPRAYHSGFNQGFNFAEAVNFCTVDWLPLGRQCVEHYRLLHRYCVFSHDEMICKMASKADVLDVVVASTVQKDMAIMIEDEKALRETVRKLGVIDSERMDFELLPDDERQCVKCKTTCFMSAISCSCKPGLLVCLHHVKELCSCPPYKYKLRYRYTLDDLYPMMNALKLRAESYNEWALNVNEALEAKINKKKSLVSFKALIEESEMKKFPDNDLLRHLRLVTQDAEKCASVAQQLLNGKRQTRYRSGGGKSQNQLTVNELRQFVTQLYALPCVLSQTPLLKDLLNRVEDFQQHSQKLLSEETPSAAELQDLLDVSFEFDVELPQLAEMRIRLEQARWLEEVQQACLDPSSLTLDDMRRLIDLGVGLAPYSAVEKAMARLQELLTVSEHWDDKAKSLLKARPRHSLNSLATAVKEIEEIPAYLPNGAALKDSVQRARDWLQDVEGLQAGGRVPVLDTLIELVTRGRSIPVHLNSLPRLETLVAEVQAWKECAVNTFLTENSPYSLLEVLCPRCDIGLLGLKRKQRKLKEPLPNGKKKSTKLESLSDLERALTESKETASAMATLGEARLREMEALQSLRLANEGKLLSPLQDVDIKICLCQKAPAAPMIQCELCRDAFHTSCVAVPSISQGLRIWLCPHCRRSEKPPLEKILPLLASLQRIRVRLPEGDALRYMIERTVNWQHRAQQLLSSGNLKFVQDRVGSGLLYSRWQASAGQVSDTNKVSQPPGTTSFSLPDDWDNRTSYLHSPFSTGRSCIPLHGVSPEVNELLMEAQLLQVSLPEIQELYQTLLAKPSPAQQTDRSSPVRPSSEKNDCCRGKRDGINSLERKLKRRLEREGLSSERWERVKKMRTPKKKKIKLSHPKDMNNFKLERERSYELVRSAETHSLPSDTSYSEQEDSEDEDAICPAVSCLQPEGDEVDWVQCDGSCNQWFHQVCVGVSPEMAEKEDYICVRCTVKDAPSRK", "assay": "Primary screen for KDM5B Histone Demethylases FDH-coupled qHTS; further: nearly all actives have a fitted effect of over 70% in size", "conditions": "FDH-coupled NADH fluorescence (FDH is formaldehyde dehydrogenase); series mostly up to 57.7 µM", "summary_of_the_method": "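Compound dilutions met 200 nM (final) KDM5BΔAP for 10 min at room temperature before substrate addition. The substrate mix held 12.5 µM H3K4me3 with cofactors 25 µM α-ketoglutarate and 50 µM Fe²⁺. NADH signal gain over 30 min defined activity.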"}
{"molecule": "CCn1c(=O)cc(OCC(=O)Nc2cc(OC)c(OC)c(OC)c2)c2ccccc21", "Potency": "inconclusive: 28.2 µM [inhibitor, single point]"}
{"molecule": "CCOC(=O)c1cnc2ccc(C(=O)OC)cc2c1Nc1cc(C)ccc1OC", "Potency": "inactive"}
{"molecule": "COc1ccc(COCC(O)CSc2nncs2)cc1OC", "note": "(stereo not given)", "Potency": "inactive"}
{"molecule": "CC(C)(C)N(Cc1cn(Cc2ccccc2)nn1)S(=O)(=O)c1ccc(N2CCCCC2)cc1Br", "Potency": "inconclusive: 25.1 µM [inhibitor, single point]"}
{"molecule": "COc1ccc(/C=C/C(=O)O/N=C(\\N)c2cccnc2)cc1OC", "Potency": "inconclusive: 39.8 µM [inhibitor, single point]"}
{"molecule": "Cc1noc(-c2ccn3c(CNC(=O)c4ccc(Cl)cc4)nnc3c2)n1", "Potency": "inactive"}
{"molecule": "N#C/C(=C/c1ccc(-c2ccccc2C#N)o1)c1ccc(F)cc1", "Potency": "inactive"}
{"molecule": "CCC1CCCCN1C(=O)C1CC1", "note": "(stereo not given)", "Potency": "inactive"}
{"molecule": "COc1nccnc1NC1CCN(C(=O)c2c[nH]c3ccccc23)CC1", "Potency": "inconclusive: 28.2 µM [inhibitor, partial curve, poor fit]"}
{"molecule": "Cc1ccc(C)c(N(C)C(=O)C2CCN(c3ncnc4c3nc3n4CCCCC3)CC2)c1", "Potency": "inactive"}
{"molecule": "CC1(C)CC(NC(=O)C2CCN(S(=O)(=O)c3ccccc3)CC2)CC(C)(C)N1", "Potency": "inactive"}
{"molecule": "c1ccc(Cc2nnc([C@H]3CCN(Cc4ccncc4)C3)o2)cc1", "Potency": "inconclusive: 35.5 µM [inhibitor, single point]"}
{"molecule": "CC(C)Nc1nc(N)c(C(=O)c2ccccc2)s1", "Potency": "inactive"}
{"molecule": "COc1cc(-c2nc(-c3c(C)noc3C)cc3cc(CN(C)C)oc23)ccn1", "Potency": "active: 35.5 µM"}
{"molecule": "CN(C)/C=C\\C(=O)C1CC1", "Potency": "inactive"}
{"molecule": "COc1ccccc1NC(=O)Cn1c(=O)n(-c2cccc(C)c2)c(=O)c2c1cc(C)n2C", "Potency": "inactive"}
{"molecule": "O=C(CCC(F)(F)F)NC1CC(=O)N(Cc2ccccc2Cl)C1", "note": "(stereo not given)", "Potency": "inactive"}
{"molecule": "C[S+](=O)([O-])N1CCN(c2ccc(C=O)cc2)C(=O)C1", "Potency": "inconclusive: 56.2 µM [inhibitor, partial curve]"}
{"molecule": "O=C(Cn1nc2n(c1=O)CCCCC2)Nc1ccc(Cl)cc1", "Potency": "inactive"}
{"molecule": "COCCN1CCCCCC(O)c2cc(C(=O)NCC3CC3)ccc21", "note": "(stereo not given)", "Potency": "inconclusive: 28.2 µM [inhibitor, single point]"}
{"molecule": "COc1ccc(C(=O)N2C[C@@H]3C[C@H](C2)c2ccc(NS(=O)(=O)c4ccccc4C#N)c(=O)n2C3)cc1", "Potency": "inconclusive: 28.2 µM [inhibitor, partial curve, poor fit]"}
{"molecule": "CC(C)(C)c1ccc(-c2nc(C#N)c(N3CCCCC3)o2)cc1", "Potency": "inactive"}
{"molecule": "COc1cccc(C2=NN(C(C)=O)C(c3cccs3)C2)c1", "note": "(stereo not given)", "Potency": "inconclusive: 35.5 µM [inhibitor, partial curve, poor fit]"}
{"molecule": "CCCOc1nc2ccccc2nc1N1CCC(C(=O)Nc2cc(F)cc(F)c2)CC1", "Potency": "inconclusive: 20 µM [inhibitor, partial curve, poor fit]"}
{"molecule": "CCC(=O)Nc1c(-c2cc(=O)oc3ccc(Cl)cc23)oc2ccccc12", "Potency": "inactive"}
{"molecule": "CCNC(=O)Cc1c[nH]c2ncc(-c3cccnc3OC)cc12", "Potency": "active: 39.8 µM"}
{"molecule": "O=C(CCc1ccccc1)N1CCC2(CC1)N=C(c1cccc(Br)c1)NO2", "Potency": "inconclusive: 28.2 µM [inhibitor, single point]"}
{"molecule": "CCc1ccc(S(=O)(=O)N2CCN(Cc3ccco3)CC2)cc1", "Potency": "inconclusive: 39.8 µM [inhibitor, single point]"}
{"molecule": "CCNC(=O)c1cc2c(=O)[nH]c(-c3ccccc3)cn2n1", "Potency": "inconclusive: 25.1 µM [inhibitor, partial curve, poor fit]"}
{"molecule": "Cc1ccc(S(=O)(=O)N2CCN(Cc3csc(C)n3)CC2)cc1", "Potency": "inactive"}
{"molecule": "CC1CCCN(S(=O)(=O)c2ccc(-c3nc(C#N)c(NCCCN(C)C)o3)cc2)C1", "note": "(stereo not given)", "Potency": "inconclusive: 2 µM [inhibitor, full curve, poor fit]"}
{"molecule": "CCOc1ccc(NC(=O)C2CCCN2C(=O)NC2CCCCC2)cc1", "note": "(stereo not given)", "Potency": "inactive"}
{"molecule": "CS(=O)(=O)N1CCC(C2CCN(C(=O)NCCc3ccccc3)C2)CC1", "note": "(stereo not given)", "Potency": "inconclusive: 8.91 µM [inhibitor, partial curve, poor fit]"}
{"molecule": "CCNC(=O)NCc1ccc(C(=O)OC)cc1", "Potency": "inactive"}
{"molecule": "CC(=O)Nc1ccc2nc(-c3cccc(C)c3)oc2c1", "Potency": "inconclusive: 28.2 µM [inhibitor, partial curve, poor fit]"}
{"molecule": "COc1ccc(C2(C(=O)N3CCCC(CN4CCCC4)CC3)CC2)cc1", "note": "(stereo not given)", "Potency": "inconclusive: 35.5 µM [inhibitor, single point]"}
{"molecule": "CN(C)Cc1cccc(-c2cc3c(ccn3Cc3ccncc3)c(N3CCOCC3)n2)c1", "Potency": "active: 39.8 µM"}
{"molecule": "COc1cc(/C=C/C(=O)N[C@@H](Cc2c[nH]c3ccccc23)C(=O)O)ccc1O", "Potency": "inconclusive: 17.8 µM [inhibitor, single point]"}
{"molecule": "O=C(Cc1cccc(F)c1)NCc1nnc2ccc(-c3ccc(F)cc3)nn12", "Potency": "inconclusive: 28.2 µM [inhibitor, partial curve, poor fit]"}
{"molecule": "CNC(=O)[C@@H]1CN(Cc2cccc(OC)c2)C[C@H]1CO", "Potency": "inactive"}
{"molecule": "O=C(NCC(c1cccnc1)N1CCN(Cc2ccccc2)CC1)C(=O)Nc1cccc(F)c1", "note": "(stereo not given)", "Potency": "inactive"}
{"molecule": "O=C(NCCCn1ccnc1)c1ccc(C2CCCNC2)cc1", "note": "(stereo not given)", "Potency": "inactive"}
{"molecule": "NC(=O)c1ccc(C(=O)NC2CCCc3ccccc32)cc1", "note": "(stereo not given)", "Potency": "inactive"}
{"molecule": "Cc1c(CC(=O)NC2CC2)c2c(n1Cc1ccc(F)cc1)CCCC2=O", "Potency": "inactive"}
{"molecule": "Cc1cc(C)c2oc(C(=O)N(Cc3cccs3)c3ccccn3)cc(=O)c2c1", "Potency": "inactive"}
{"molecule": "Cc1nn2c(c1-c1ccccc1C(C)C)N(C(=O)c1cccc(C#N)c1)CCC2", "Potency": "inactive"}
{"molecule": "Cc1noc(-c2ccc(N3CCC(O)(c4cccnc4)CC3)nc2)n1", "Potency": "inconclusive: 17.8 µM [inhibitor, single point]"}
{"molecule": "COc1cccc(/C=C/c2ccc3cccc(O)c3n2)c1OC", "Potency": "inconclusive: 39.8 µM [inhibitor, single point]"}
{"molecule": "Cc1cnc(C(=O)NC2C[C@H]3CC[C@@H](C2)N3C(=O)c2sccc2C)cn1", "note": "(stereo not given in full)", "Potency": "inactive"}
{"molecule": "c1ccc(-c2ccc3ncc(Nc4ccc5c(c4)OCCO5)n3n2)cc1", "Potency": "inactive"}
